# Measured values: a compilation of properties of binary mixtures (doi:10.1021/jp3059905)
# The densities may have been worked out from excess volumes.
# Test: xn = mol fraction of the nth substance listed
# Conditions: 298.15 K, 101 kPa
structure (smiles),measurement,setting,value
CCCC[n+]1ccn(C)c1.O=S(=O)([N-]S(=O)(=O)C(F)(F)F)C(F)(F)F + CCCCCCCCCC[n+]1ccn(C)c1.O=S(=O)([N-]S(=O)(=O)C(F)(F)F)C(F)(F)F,mass density,x1 = 1,1436.9 kg/m3
CCCC[n+]1ccn(C)c1.O=S(=O)([N-]S(=O)(=O)C(F)(F)F)C(F)(F)F + CCCCCCCCn1cc[n+](C)c1.O=S(=O)([N-]S(=O)(=O)C(F)(F)F)C(F)(F)F,mass density,x1 = 1,1436.9 kg/m3
CCCC[n+]1ccn(C)c1.O=S(=O)([N-]S(=O)(=O)C(F)(F)F)C(F)(F)F + CCCCCC[n+]1ccn(C)c1.O=S(=O)([N-]S(=O)(=O)C(F)(F)F)C(F)(F)F,mass density,x1 = 1,1436.9 kg/m3
CCCCCCCCCC[n+]1ccn(C)c1.O=S(=O)([N-]S(=O)(=O)C(F)(F)F)C(F)(F)F + CCCC[n+]1ccn(C)c1.O=S(=O)([N-]S(=O)(=O)C(F)(F)F)C(F)(F)F,mass density,x2 = 0.2147,1305.9 kg/m3
same,mass density,x2 = 0.4052,1332.6 kg/m3
same,mass density,x2 = 0.5999,1362.8 kg/m3
CCCCCCCCn1cc[n+](C)c1.O=S(=O)([N-]S(=O)(=O)C(F)(F)F)C(F)(F)F + CCCC[n+]1ccn(C)c1.O=S(=O)([N-]S(=O)(=O)C(F)(F)F)C(F)(F)F,mass density,x2 = 0,1322.4 kg/m3
same,mass density,x2 = 0.2068,1342.8 kg/m3
same,mass density,x2 = 0.5017,1374.3 kg/m3
same,mass density,x2 = 0.7944,1409.6 kg/m3
CCCCCC[n+]1ccn(C)c1.O=S(=O)([N-]S(=O)(=O)C(F)(F)F)C(F)(F)F + CCCC[n+]1ccn(C)c1.O=S(=O)([N-]S(=O)(=O)C(F)(F)F)C(F)(F)F,mass density,x2 = 0,1373.2 kg/m3
same,mass density,x2 = 0.5001,1404.3 kg/m3
same,mass density,x2 = 0.5894,1410 kg/m3
same,mass density,x2 = 0.793,1423.2 kg/m3
CCCCCn1cc[n+](C)c1.O=S(=O)([N-]S(=O)(=O)C(F)(F)F)C(F)(F)F + CCCC[n+]1ccn(C)c1.O=S(=O)([N-]S(=O)(=O)C(F)(F)F)C(F)(F)F,mass density,x2 = 0.2054,1405 kg/m3
same,mass density,x2 = 0.3981,1415.8 kg/m3
same,mass density,x2 = 0.5057,1420.7 kg/m3
same,mass density,x2 = 0.5851,1424.4 kg/m3
same,mass density,x2 = 0.8011,1432.1 kg/m3
CC[n+]1ccn(C)c1.O=S(=O)([N-]S(=O)(=O)C(F)(F)F)C(F)(F)F + CCCC[n+]1ccn(C)c1.O=S(=O)([N-]S(=O)(=O)C(F)(F)F)C(F)(F)F,mass density,x1 = 0.2159,1446.9 kg/m3
same,mass density,x1 = 0.4997,1466.1 kg/m3
same,mass density,x1 = 0.7753,1492 kg/m3
same,mass density,x1 = 1,1519.3 kg/m3
Cn1cc[n+](C)c1.O=S(=O)([N-]S(=O)(=O)C(F)(F)F)C(F)(F)F + CCCC[n+]1ccn(C)c1.O=S(=O)([N-]S(=O)(=O)C(F)(F)F)C(F)(F)F,mass density,x1 = 0.1962,1459.6 kg/m3
same,mass density,x1 = 0.498,1498 kg/m3
same,mass density,x1 = 0.5859,1509.6 kg/m3
same,mass density,x1 = 0.7894,1538.7 kg/m3
CCCC[n+]1ccn(C)c1.O=S(=O)([N-]S(=O)(=O)C(F)(F)F)C(F)(F)F + CC[n+]1ccn(C)c1.O=S(=O)([N-]S(=O)(=O)C(F)(F)F)C(F)(F)F,mass density,x2 = 0,1436.9 kg/m3
CCCC[n+]1ccn(C)c1.O=S(=O)([N-]S(=O)(=O)C(F)(F)F)C(F)(F)F + Cn1cc[n+](C)c1.O=S(=O)([N-]S(=O)(=O)C(F)(F)F)C(F)(F)F,mass density,x2 = 0,1436.9 kg/m3
